From patent publication US20240101686A1 (SIMCERE ZAIMING PHARMACEUTICAL, published 2024)
Read-outs that look alike come from different tables or passages of the source.

B1: S008-NB149-12 VHH-Fc antibody (Fc fusion)
chain: QVQLVESGGGLVQPGGSLRLSCVVSESISVINAMTWYRQAPGKQRELVALISRGGSTNYADSVKGRFTISRDNAKNSVYLQMNSLKPEDTALYYCNVVPPLGSWGQGTQVTVSS[human IgG1 Fc with changes not shown]
notes: VHH fused to human IgG1 hinge and Fc
B2: S008-NB149-15 VHH-Fc antibody (Fc fusion)
chain: QLQLVESGGGLVRPGGSLRLSCAASGSIFSRSGATWYRQAPGKQRELVALLTRDGHTDYPVVSVKGRFTISKDNAKNTVYLQMNSLQPEDTAVYYCNAIPPLGSWGRGTQVTVSS[human IgG1 Fc with changes not shown]
notes: as for B1
B3: S008-NB149-22 VHH-Fc antibody (Fc fusion)
chain: QVQLVESGGGLVQAGGSLRLSCVASGRFPSIYRMAWFRQAPGKERDFVAAINWGGTATYYEDSVKGRFTISRDNTKNTVWLQMNSLKPEDTAVYYCAAGTGTTYTPQRGDAYGYWGQGTQVTVSS[human IgG1 Fc with changes not shown]
notes: as for B1
B4: S008-NB149-9 VHH-Fc antibody (Fc fusion)
chain: QVQLVESGGFVQAGGSLRLSCAASGRTFSKYAMGWFRQAPGKEREFVAAIRWIGGSTYYADSVKGRFTISRDNDKNTLYLQMNSLKPEDTAVYYCAAGYQAYPEPPWEYDYWGQGTQVTVSS[human IgG1 Fc with changes not shown]
notes: as for B1
B5: S008-NB148-25 (Fc fusion)
chain: EVQLVESGGGLVQPGGSLRLSCAVSQSISSINAMDWYRQAPGKQRELVAIIFNNGRTNYADSVKGRFTISRDNARNTVYLQMNSLKPEDTAVYYCNIVPPLRNWGQGTQVTVSS[human IgG1 Fc with changes not shown]
notes: Tested as VHH-Fc; order VHH-hinge-Fc inferred
B6: S008-NB148-77 (Fc fusion)
chain: EVQVVESGGGLVQAGGSLRLSCVASGFDFSDSVMGWYRQAPGKQREAVAIISSVGQSNYRDSVQGRFTVSRSNTENTMYLQMDSLKPEDTAIYYCKKFGPGEYWGQGTQVTVSS[human IgG1 Fc with changes not shown]
notes: as for B5
B7: S008-NB148-8 (Fc fusion)
chain: EVQLVESGGGLVQAGGSLRLSCVVSGSTFSSYAMGWYRQAPGKQRELVAAISSGVSANVADSLKGRFAISRDNAKNAVYLQMNSLKPEDTAVYYCNTLPRSMPYWGKGTLVTVSS[human IgG1 Fc with changes not shown]
notes: as for B5
B8: S008-NB149-20 (Fc fusion)
chain: EVQVVESGGGLVQPGGSLRLSCAASGSGFTINAMTWYRRAPGKERELVAIITNGGITNYADSVKGRFTISRDNAKSTVYLQMDGLEPEDTAVYYCNIVPPVYWGQGTQVTVSS[human IgG1 Fc with changes not shown]
notes: as for B5
B9: S008-NB149-60 (Fc fusion)
chain: QLQLVESGGGLVQPGGSLRLSCAASRSISSINTMTWYRYQGPGKERELVALITLGGTTNYADSVKGRFTISRDDAKNTLYLEMNSLKPEDTAVYYCNAVPPFRWGQGTQVTVSS[human IgG1 Fc with changes not shown]
notes: as for B5
B10: S008-NB149-64 (Fc fusion)
chain: EVQVVESGGGLVQPGGSLRLSCVASGIIFSSYAMGWYRQAPGKQRELVARISSGGGLYYEDPVKGRFTISRDNARNTVYLQMSSVKPEDTAVYYCNVVPYTPGYWGQGTQVTVSS[human IgG1 Fc with changes not shown]
notes: as for B5

Columns and labels:
[1] = target: T1, monkey EGFR protein (commercial, SB, catalog number 90285-C08H) (monkey); experiment: ELISA, coated monkey EGFR protein, antibody 1 nM
T1 construct: Bought protein used to coat ELISA plates

[2] = target: T1, monkey EGFR protein (commercial, SB, …); experiment: ELISA, coated monkey EGFR protein, antibody 10 nM
[3] = target: T2, human EGFR endogenously expressed on A431 cells (human, UniProt P00533)
T2 construct: whole, on cells

[4] = target: T1, monkey EGFR protein (commercial, SB, …); experiment: ELISA, coated monkey EGFR protein, antibody 0 nM (blank)
[5] = target: T3, cynomolgus monkey EGFR on HEK293T-monkey EGFR cells (cynomolgus monkey, UniProt P55245 (rhesus entry)); experiment: FACS, HEK293T-monkey EGFR cells
[6] = target: T1, monkey EGFR protein (commercial, SB, …); experiment: ELISA, coated monkey EGFR protein, antibody 0.01 nM
[7] = target: T3, cynomolgus monkey EGFR on …; experiment: FACS, HEK293T-monkey EGFR cells (specificity assay)
[8] = target: T1, monkey EGFR protein (commercial, SB, …); experiment: ELISA, coated monkey EGFR protein, antibody 100 nM
[9] = target: T1, monkey EGFR protein (commercial, SB, …); experiment: ELISA, coated monkey EGFR protein, antibody 0.0001 nM
[10] = target: T1, monkey EGFR protein (commercial, SB, …); experiment: ELISA, coated monkey EGFR protein, antibody 0.001 nM
[11] = target: T1, monkey EGFR protein (commercial, SB, …); experiment: ELISA, coated monkey EGFR protein, antibody 0.1 nM
[12] = target: T4, murine EGFR protein (murine, UniProt Q01279 25-647)
T4 construct: Bought protein

[13] = target: T5, Her2 protein (human, UniProt P04626 partial chain)
T5 construct: Bought protein; also called human Her2 protein

[14] = target: T5, Her2 protein; remark: listed apart in the source
[15] = target: T5, Her2 protein; remark: listed apart in the source
[16] = target: T6, human EGFR protein (human, UniProt P00533 partial chain)
T6 construct: also called human EGFR-His; human EGFR-ECD protein; not shown: His tag

[17] = target: T7, human EGFRvIII-His tag protein (human, UniProt P00533 partial chain)
T7 construct: Made in HEK293E, purified on nickel column; also called human EGFRvIII protein; not shown: His tag

[18] = target: T5, Her2 protein; remark: listed apart in the source
[19] = target: T5, Her2 protein; remark: listed apart in the source
[20] = target: T5, Her2 protein; remark: listed apart in the source
[21] = target: T5, Her2 protein; remark: listed apart in the source
[22] = target: T8, monkey EGFR protein (cynomolgus monkey, UniProt P55245 partial chain (rhesus entry))
T8 construct: Bought protein (SB 90285-C08H); also called cynomolgus monkey EGFR

[23] = target: T5, Her2 protein; remark: listed apart in the source
[24] = target: T6, human EGFR protein; remark: listed apart in the source
[25] = target: T4, murine EGFR protein; remark: listed apart in the source

Binder	OD450 [1]	OD450 [2]	Max_MFI [3]	OD450 [4]	Max MFI [5]	OD450 [6]	Max_MFI [7]	OD450 [8]	OD450 [9]	OD450 [13]	OD450 [14]	OD450 [15]	OD450 [18]	OD450 [19]	OD450 [20]	OD450 [21]	Kd [22]	koff [22]	kon [22]	OD450 [23]	also measured
B1	2.04	2.19	15700	0.04	18900	0.54	7540	2.21	0.04	–	–	–	–	–	–	–	–	–	–	–	EC50 [5]: 8.87 nM; OD450 [10]: 0.09; OD450 [11]: 1.6
B2	2.13	2.31	14900	0.08	19200	0.89	10500	2.44	0.09	–	–	–	–	–	–	–	–	–	–	–	EC50 [5]: 3.89 nM; OD450 [10]: 0.21; OD450 [11]: 1.95
B3	1.88	2.26	8850	0.04	9270	0.36	6370	2.3	0.04	–	–	–	–	–	–	–	–	–	–	–	OD450 [10]: 0.07; OD450 [11]: 1.37
B4	1.95	2.15	11200	0.12	8960	0.45	5170	2.19	0.06	–	–	–	–	–	–	–	–	–	–	–	EC50 [5]: 0.57 nM; OD450 [10]: 0.11; OD450 [11]: 1.55
B5	–	–	–	–	–	–	–	–	–	0.11	0.14	0.1	0.11	0.11	0.16	0.24	24.4 nM	0.000583 s⁻¹	23900 M⁻¹ s⁻¹	0.11	binding result [12]: no binding (tested: 200 nM (highest antigen concentration)); Kd [16]: 73.1 nM; koff [16]: 0.00141 s⁻¹; kon [16]: 19200 M⁻¹ s⁻¹; Kd [17]: 17.2 nM; koff [17]: 0.000727 s⁻¹; kon [17]: 42400 M⁻¹ s⁻¹; EC80 [24]: 8.3 µg/mL
B6	–	–	–	–	–	–	–	–	–	0.12	0.11	0.12	0.12	0.13	0.12	0.18	1.74 nM	0.000446 s⁻¹	256000 M⁻¹ s⁻¹	0.11	Kd [16]: 19.6 nM; koff [16]: 18 s⁻¹; kon [16]: 9.18e+08 M⁻¹ s⁻¹; Kd [17]: 9.91 nM; koff [17]: 0.00188 s⁻¹; kon [17]: 190000 M⁻¹ s⁻¹; Kd [25]: 12.1 nM; koff [25]: 3.5 s⁻¹; EC80 [24]: 46.2 µg/mL
B7	–	–	–	–	–	–	–	–	–	0.1	0.08	0.1	0.1	0.12	0.09	0.12	2.59 nM	0.000172 s⁻¹	66300 M⁻¹ s⁻¹	0.11	Kd [16]: 66.1 nM; koff [16]: 0.00328 s⁻¹; kon [16]: 49700 M⁻¹ s⁻¹; Kd [17]: 42.5 nM; koff [17]: 0.00325 s⁻¹; kon [17]: 76600 M⁻¹ s⁻¹; Kd [25]: 53 nM; koff [25]: 0.0171 s⁻¹; kon [25]: 323000 M⁻¹ s⁻¹; EC80 [24]: 76 µg/mL
B8	–	–	–	–	–	–	–	–	–	0.13	0.14	0.17	0.12	0.18	0.16	0.18	2.63 nM	0.000102 s⁻¹	38600 M⁻¹ s⁻¹	0.14	binding result [12]: no binding (tested: 200 nM (highest antigen concentration))
B9	–	–	–	–	–	–	–	–	–	0.1	0.15	0.17	0.19	0.16	0.14	0.23	1.68 nM	0.000148 s⁻¹	88200 M⁻¹ s⁻¹	0.15	binding result [12]: no binding (tested: 200 nM (highest antigen concentration))
B10	–	–	–	–	–	–	–	–	–	0.07	0.15	0.13	0.07	0.09	0.08	0.17	–	–	–	0.17	Kd [25]: 0.959 nM; koff [25]: 0.000101 s⁻¹; kon [25]: 105000 M⁻¹ s⁻¹
